Source: publication PMC5979497
Substitutions are numbered along the chain they refer to. Results are given in words; binding and its absence hold for the method and conditions named. In cells and extracts the contact can be indirect. Some binding calls cover weakened binding; strength is not graded here. For some assays here: Where a sequence is shown, tags or fusion partners need not be part of it.

By UniProt entry, the sequences of proteins in these tests, tags left out.
UniProt P61589: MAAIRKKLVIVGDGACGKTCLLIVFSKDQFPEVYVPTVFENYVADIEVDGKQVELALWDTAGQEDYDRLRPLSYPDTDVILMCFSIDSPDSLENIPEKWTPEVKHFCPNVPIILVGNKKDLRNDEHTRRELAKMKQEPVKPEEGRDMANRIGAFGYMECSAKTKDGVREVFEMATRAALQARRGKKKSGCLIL
UniProt P61586: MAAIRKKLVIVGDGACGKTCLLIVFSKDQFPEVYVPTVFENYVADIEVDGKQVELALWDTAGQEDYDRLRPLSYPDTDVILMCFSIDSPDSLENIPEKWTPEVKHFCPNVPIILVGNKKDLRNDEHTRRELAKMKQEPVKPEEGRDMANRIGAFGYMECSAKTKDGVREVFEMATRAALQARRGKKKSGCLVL
UniProt Q9QUI0: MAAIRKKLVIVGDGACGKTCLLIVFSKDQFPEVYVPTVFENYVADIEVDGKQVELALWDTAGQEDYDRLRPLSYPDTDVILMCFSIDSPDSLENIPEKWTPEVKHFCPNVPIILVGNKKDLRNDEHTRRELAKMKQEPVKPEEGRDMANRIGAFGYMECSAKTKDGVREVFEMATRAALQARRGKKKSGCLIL

Assays:
[1] = molecular target: RhoA (endogenous in PC12 cells) (rat (endogenous in PC12)) (UniProt P61589); assay: co-IP; lysates of PC12 cells expressing calsenilin preloaded with 0.1 mM GTPγS (compared with 1 mM GDP) after 10 mM EDTA, 15 min at 30 °C, stopped with 60 mM MgCl2; immunoprecipitated with an anti-RhoA antibody, Western blot with anti-calsenilin and anti-RhoA
[2] = molecular target: RhoA (endogenous in PC12 cells) (rat (endogenous in PC12)) (UniProt P61589); assay: co-IP; lysates of PC12 cells stably expressing vector or GFP-tagged calsenilin (FL, NTF or CTF); immunoprecipitated with an anti-RhoA antibody, Western blot with anti-calsenilin, anti-p190RhoGAP and anti-RhoA; modified RIPA buffer, 50 mM Tris-HCl pH 7.4, 150 mM NaCl, 1% NP-40, 0.25% sodium deoxycholate, 1 mM EDTA, 4 °C
[3] = molecular target: RhoA (endogenous in HEK293 cells) (human (endogenous in HEK293)) (UniProt P61586); assay: co-IP; lysates of HEK293 cells stably expressing vector or GFP-tagged calsenilin (FL, NTF or CTF); immunoprecipitated with an anti-RhoA antibody, Western blot with anti-calsenilin (1F11; 4E4), anti-p190RhoGAP and anti-RhoA; modified RIPA buffer, 150 mM NaCl, 1% NP-40, 4 °C
[4] = molecular target: RhoA (endogenous in mouse brain) (mouse (endogenous in brain)) (UniProt Q9QUI0); assay: co-IP; whole brain lysates of wild-type and calsenilin-knockout mice; co-immunoprecipitation of RhoA with calsenilin (anti-4E4) and p190RhoGAP; modified RIPA buffer, 150 mM NaCl, 1% NP-40, 4 °C

B1: GFP-tagged full-length human calsenilin (pEGFP-N1-calsenilin-FL, residues 1-256) (protein, UniProt Q9Y2W7 1-256)
chain: MQPAKEVTKASDGSLLGDLGHTPLSKKEGIKWQRPRLSRQALMRCCLVKWILSSTAPQGSDSSDSELELSTVRHQPEGLDQLQAQTKFTKKELQSLYRGFKNECPTGLVDEDTFKLIYAQFFPQGDATTYAHFLFNAFDADGNGAIHFEDFVVGLSILLRGTVHEKLKWAFNLYDINKDGYITKEEMLAIMKSIYDMMGRHTYPILREDAPAEHVERFFEKMDRNQDGVVTIEEFLEACQKDENIMSSMQLFENVI
binding [1]: binds
binding [2]: binds
binding [3]: binds

B2: calsenilin (endogenous in mouse brain) (protein, UniProt Q9QXT8 1-256)
chain: MQRTKEAVKASDGNLLGDPGRIPLSKRESIKWQRPRFTRQALMRCCLIKWILSSAAPQGSDSSDSELELSTVRHQPEGLDQLQAQTKFTKKELQSLYRGFKNECPTGLVDEDTFKLIYSQFFPQGDATTYAHFLFNAFDADGNGAIHFEDFVVGLSILLRGTVHEKLKWAFNLYDINKDGCITKEEMLAIMKSIYDMMGRHTYPILREDAPLEHVERFFQKMDRNQDGVVTIDEFLETCQKDENIMNSMQLFENVI
binding [4]: binds

B3: p190 Rho GTPase-activating protein (endogenous in mouse brain) (protein, UniProt Q91YM2 1-1499)
chain: MMMARKQDVRIPTYNISVVGLSGTEKEKGQCGIGKSCLCNRFVRPSADEFHLDHTSVLSTSDFGGRVVNNDHFLYWGEVSRSLEDCVECKMHIVEQTEFIDDQTFQPHRSTALQPYIKRAAATKLASAEKLMYFCTDQLGLEQDFEQKQMPDGKLLVDGFLLGIDVSRGMNRNFDDQLKFVSNLYNQLAKTKKPIVVVLTKCDEGVERYIRDAHTFALSKKNLQVVETSARSNVNVDLAFSTLVQLIDKSRGKTKIIPYFEALKQQSQQIATAKDKYEWLVSRIVKNHNENWPSVSRKMQASPEYQDYVYLEGTQKAKKLFLQHIHRLKHEHIERRRKLYLAALPLAFEALIPNLDEVDHLSCIKAKKLLETKPEFLKWFVVLEETPWDATSHIDNMENERIPFDLMDTVPAEQLYETHLEKLRNERKRAEMRRAFKENLETSPFITPGKPWEEARSFIMNEDFYQWLEESVYMDIYGKHQKQIIDRAKEEFQELLLEYSELFYELELDAKPSKEKMGVIQDVLGEEQRFKALQKLQAERDALILKHIHFVYHPTKETCPSCPACVDAKIEHLISSRFIRPSDRNQKNSLSDLNIDRINLVILGKDGLARELANEIRALCTNDDKYVIDGKMYELSLRPIEGNVRLPVNSFQTPTFQPHGCLCLYNSKESLSYVVESIEKSRESTLGRRDNHLVHLPLTLILVNKRGDTSGETLHSLIQQGQQIASKLQCVFLDPASAGIGYGRNINEKQISQVLKGLLDSKRNLNLVSSTASIKDLADVDLRIVMCLMCGDPFSADDVLSPVLQSQTCKSSHCGSSNSVLLELPIGLHKKRIELSVLSYHSSFSIRKSRLVHGYIVFYSAKRKASLAMLRAFLCEVQDIIPIQLVALTDGAIDVLDNDLSREQLTEGEEIAQEIDGRFTSIPCSQPQHKLELFHPFFKDVVEKKNIIEATHMYDNVAEACSTTEEVFNSPRAGSPLCNSNLQDSEEDVEPPSYHLFREDATLPSLSKDHSKFSMELEGNDGLSFIMSNFESKLNNKVPPPVKPKPPVHFDITKDLSYLDQGHREGQRKSMSSSPWMPQDGFDPSDYAEPMDAVVKPRNEEENIYSVPHDSTQGKIITIRNINKAQSNGSGNGSDSEMDTSSLERGRKVSAVSKPVLYRTRCTRLGRFASYRTSFSVGSDDELGPIRKKEEDQASQGYKGDNAVIPYETDEDPRRRNILRSLRRNTKKPKPKPRPSITKATWESNYFGVPLTTVVTPEKPIPIFIERCIEYIEATGLSTEGIYRVSGNKSEMESLQRQFDQDHNLDLAEKDFTVNTVAGAMKSFFSELPDPLVPYSMQIDLVEAHKINDREQKLHALKEVLKKFPKENHEVFKYVISHLNKVSHNNKVNLMTSENLSICFWPTLMRPDFSSMDALTATRSYQTIIELFIQQCPFFFYNRPISEPPGAAPGSPSAMAPTVPFLTSTPATSQPSPPQSPPPTPQSPMQPLLSSQLQAEHTL
binding [4]: binds

B4: GFP-tagged human calsenilin-CTF (pEGFP-N1-calsenilin-CTF, residues 65-256) (domain or fragment, UniProt Q9Y2W7 65-256)
chain: SELELSTVRHQPEGLDQLQAQTKFTKKELQSLYRGFKNECPTGLVDEDTFKLIYAQFFPQGDATTYAHFLFNAFDADGNGAIHFEDFVVGLSILLRGTVHEKLKWAFNLYDINKDGYITKEEMLAIMKSIYDMMGRHTYPILREDAPAEHVERFFEKMDRNQDGVVTIEEFLEACQKDENIMSSMQLFENVI
binding [2]: binds
binding [3]: binds

B5: p190 Rho GTPase-activating protein (endogenous in PC12 cells) (protein, UniProt P81128 1-1499)
chain: B3 chain with V197I, N287S, P293L, A390E, L593P, V799I, L828V, D1051E, K1381R
binding [2]: binds

B6: p190 Rho GTPase-activating protein (endogenous in HEK293 cells) (protein, UniProt Q9NRY4 1-1499)
chain: MMMARKQDVRIPTYNISVVGLSGTEKEKGQCGIGKSCLCNRFVRPSADEFHLDHTSVLSTSDFGGRVVNNDHFLYWGEVSRSLEDCVECKMHIVEQTEFIDDQTFQPHRSTALQPYIKRAAATKLASAEKLMYFCTDQLGLEQDFEQKQMPDGKLLVDGFLLGIDVSRGMNRNFDDQLKFVSNLYNQLAKTKKPIVVVLTKCDEGVERYIRDAHTFALSKKNLQVVETSARSNVNVDLAFSTLVQLIDKSRGKTKIIPYFEALKQQSQQIATAKDKYEWLVSRIVKNHNENWLSVSRKMQASPEYQDYVYLEGTQKAKKLFLQHIHRLKHEHIERRRKLYLAALPLAFEALIPNLDEIDHLSCIKAKKLLETKPEFLKWFVVLEETPWDATSHIDNMENERIPFDLMDTVPAEQLYEAHLEKLRNERKRVEMRRAFKENLETSPFITPGKPWEEARSFIMNEDFYQWLEESVYMDIYGKHQKQIIDKAKEEFQELLLEYSELFYELELDAKPSKEKMGVIQDVLGEEQRFKALQKLQAERDALILKHIHFVYHPTKETCPSCPACVDAKIEHLISSRFIRPSDRNQKNSLSDPNIDRINLVILGKDGLARELANEIRALCTNDDKYVIDGKMYELSLRPIEGNVRLPVNSFQTPTFQPHGCLCLYNSKESLSYVVESIEKSRESTLGRRDNHLVHLPLTLILVNKRGDTSGETLHSLIQQGQQIASKLQCVFLDPASAGIGYGRNINEKQISQVLKGLLDSKRNLNLVSSTASIKDLADVDLRIVMCLMCGDPFSADDILFPVLQSQTCKSSHCGSNNSVLLELPIGLHKKRIELSVLSYHSSFSIRKSRLVHGYIVFYSAKRKASLAMLRAFLCEVQDIIPIQLVALTDGAVDVLDNDLSREQLTEGEEIAQEIDGRFTSIPCSQPQHKLEIFHPFFKDVVEKKNIIEATHMYDNAAEACSTTEEVFNSPRAGSPLCNSNLQDSEEDIEPSYSLFREDTSLPSLSKDHSKLSMELEGNDGLSFIMSNFESKLNNKVPPPVKPKPPVHFEITKGDLSYLDQGHRDGQRKSVSSSPWLPQDGFDPSDYAEPMDAVVKPRNEEENIYSVPHDSTQGKIITIRNINKAQSNGSGNGSDSEMDTSSLERGRKVSIVSKPVLYRTRCTRLGRFASYRTSFSVGSDDELGPIRKKEEDQASQGYKGDNAVIPYETDEDPRRRNILRSLRRNTKKPKPKPRPSITKATWESNYFGVPLTTVVTPEKPIPIFIERCIEYIEATGLSTEGIYRVSGNKSEMESLQRQFDQDHNLDLAEKDFTVNTVAGAMKSFFSELPDPLVPYNMQIDLVEAHKINDREQKLHALKEVLKKFPKENHEVFKYVISHLNKVSHNNKVNLMTSENLSICFWPTLMRPDFSTMDALTATRTYQTIIELFIQQCPFFFYNRPITEPPGARPSSPSAVASTVPFLTSTPVTSQPSPPQSPPPTPQSPMQPLLPSQLQAEHTL
binding [3]: binds

B7: GFP-tagged human calsenilin-NTF (pEGFP-N1-calsenilin-NTF, residues 1-64) (domain or fragment, UniProt Q9Y2W7 1-64)
chain: MQPAKEVTKASDGSLLGDLGHTPLSKKEGIKWQRPRLSRQALMRCCLVKWILSSTAPQGSDSSD
binding [2]: no binding
binding [3]: no binding
